The list shows a part of the results. The list includes weakly bound sequences.

The text below walks through data of publication PMC12820563.

The assay has as its target T1, MBP-FoxP3dN (UniProt Q99JB6).
T1 sequence: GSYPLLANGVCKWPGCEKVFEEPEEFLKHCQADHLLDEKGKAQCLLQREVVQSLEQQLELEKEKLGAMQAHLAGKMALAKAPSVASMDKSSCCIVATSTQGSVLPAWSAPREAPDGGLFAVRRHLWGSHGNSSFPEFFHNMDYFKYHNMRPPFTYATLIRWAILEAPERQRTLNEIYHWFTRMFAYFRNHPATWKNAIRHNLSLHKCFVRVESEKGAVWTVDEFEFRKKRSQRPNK
The assay is described as follows: PD-seq (MBP pull-down with sequencing). The settings on record: 20 mM Tris-HCl pH 7.5, 100 mM NaCl, 1.5 mM MgCl2, 0.4 uM protein, 0.1 uM dsDNA library, 30 min, room temperature, amylose pull-down; high values mean tight binding; double strand, one strand shown.
For “GATGATTGTTCTCCCAGCTGATGAATTTTTCACCTCGAGTAAACAAATTTTCCTAATCTTTCTGTTCAAGCGCCATCTAC”, the binding signal (RPM ratio (pull-down/input)) amounted to 0.233.
As for “GATGATTGTTCTCCCAGCTGATGAATTCAACACATCGAGTAAACAAATTTTCCTAATCTTTCTGTTCAAGCGCCATCTAC”, the figure is 0.764; as for “GATGATTGTTCTCCCAGCTGATGAATTCGTAGAATCGAGTAAACAAATTTTCCTAATCTTTCTGTTCAAGCGCCATCTAC”, 0.245.
To “GATGATTGTTCTCCCAGCTGATGAATTCCCAGGCTCGAGTAAACAAATTTTCCTAATCTTTCTGTTCAAGCGCCATCTAC” belongs 0.229; to “GATGATTGTTCTCCCAGCTGATGAATTCGAAGATTCGAGTAAACAAATTTTCCTAATCTTTCTGTTCAAGCGCCATCTAC”, 0.243.
Consider “GATGATTGTTCTCCCAGCTGATGAATTCCCACTGTCGAGTAAACAAATTTTCCTAATCTTTCTGTTCAAGCGCCATCTAC”, for which the binding signal (RPM ratio (pull-down/input)) stood at 0.281.
On to “GATGATTGTTCTCCCAGCTGATGAATTGGGCTCATCGAGTAAACAAATTTTCCTAATCTTTCTGTTCAAGCGCCATCTAC”, for which the binding signal (RPM ratio (pull-down/input)) worked out at 0.463.
As for “GATGATTGTTCTCCCAGCTGATGAATTCGTGAAATCGAGTAAACAAATTTTCCTAATCTTTCTGTTCAAGCGCCATCTAC”, the figure is 0.321; as for “GATGATTGTTCTCCCAGCTGATGAATTCTGAATGTCGAGTAAACAAATTTTCCTAATCTTTCTGTTCAAGCGCCATCTAC”, 0.888; as for “GATGATTGTTCTCCCAGCTGATGAATTAAGCTGTTCGAGTAAACAAATTTTCCTAATCTTTCTGTTCAAGCGCCATCTAC”, 1.12.
“GATGATTGTTCTCCCAGCTGATGAATTCGACCCTTCGAGTAAACAAATTTTCCTAATCTTTCTGTTCAAGCGCCATCTAC”: the binding signal (RPM ratio (pull-down/input)) was determined as 0.384.
As for “GATGATTGTTCTCCCAGCTGATGAATTACTGTTTTCGAGTAAACAAATTTTCCTAATCTTTCTGTTCAAGCGCCATCTAC”, the figure is 1.17.
As for “GATGATTGTTCTCCCAGCTGATGAATTCTAAGACTCGAGTAAACAAATTTTCCTAATCTTTCTGTTCAAGCGCCATCTAC”, the figure is 0.231; as for “GATGATTGTTCTCCCAGCTGATGAATTCAATTACTCGAGTAAACAAATTTTCCTAATCTTTCTGTTCAAGCGCCATCTAC”, 3.27.
Turning to “GATGATTGTTCTCCCAGCTGATGAATTAGCGCTATCGAGTAAACAAATTTTCCTAATCTTTCTGTTCAAGCGCCATCTAC”, the binding signal (RPM ratio (pull-down/input)) was found to be 0.84.
With “GATGATTGTTCTCCCAGCTGATGAATTCTATTGTTCGAGTAAACAAATTTTCCTAATCTTTCTGTTCAAGCGCCATCTAC”, the binding signal (RPM ratio (pull-down/input)) amounted to 5.2.
To “GATGATTGTTCTCCCAGCTGATGAATTTGTAAGCTCGAGTAAACAAATTTTCCTAATCTTTCTGTTCAAGCGCCATCTAC” belongs 2.54; to “GATGATTGTTCTCCCAGCTGATGAATTCGAGTGATCGAGTAAACAAATTTTCCTAATCTTTCTGTTCAAGCGCCATCTAC”, 0.449.
With “GATGATTGTTCTCCCAGCTGATGAATTAGCCTCATCGAGTAAACAAATTTTCCTAATCTTTCTGTTCAAGCGCCATCTAC”, the binding signal (RPM ratio (pull-down/input)) came out at 0.954.
To “GATGATTGTTCTCCCAGCTGATGAATTGGAGCCTTCGAGTAAACAAATTTTCCTAATCTTTCTGTTCAAGCGCCATCTAC” belongs 1.39; to “GATGATTGTTCTCCCAGCTGATGAATTCGGCATATCGAGTAAACAAATTTTCCTAATCTTTCTGTTCAAGCGCCATCTAC”, 2.53; to “GATGATTGTTCTCCCAGCTGATGAATTGCTTGTCTCGAGTAAACAAATTTTCCTAATCTTTCTGTTCAAGCGCCATCTAC”, 1.71.
To “GATGATTGTTCTCCCAGCTGATGAATTGTGATAGTCGAGTAAACAAATTTTCCTAATCTTTCTGTTCAAGCGCCATCTAC” belongs 1.6; to “GATGATTGTTCTCCCAGCTGATGAATTCATGAGCTCGAGTAAACAAATTTTCCTAATCTTTCTGTTCAAGCGCCATCTAC”, 0.404; to “GATGATTGTTCTCCCAGCTGATGAATTTCTACACTCGAGTAAACAAATTTTCCTAATCTTTCTGTTCAAGCGCCATCTAC”, 0.29.
As for “GATGATTGTTCTCCCAGCTGATGAATTTTCGAAATCGAGTAAACAAATTTTCCTAATCTTTCTGTTCAAGCGCCATCTAC”, the figure is 0.331.
As for “GATGATTGTTCTCCCAGCTGATGAATTTCGCATGTCGAGTAAACAAATTTTCCTAATCTTTCTGTTCAAGCGCCATCTAC”, the binding signal (RPM ratio (pull-down/input)) worked out at 5.75.
To “GATGATTGTTCTCCCAGCTGATGAATTCACACTGTCGAGTAAACAAATTTTCCTAATCTTTCTGTTCAAGCGCCATCTAC” belongs 0.4; to “GATGATTGTTCTCCCAGCTGATGAATTCTTTGCATCGAGTAAACAAATTTTCCTAATCTTTCTGTTCAAGCGCCATCTAC”, 0.99; to “GATGATTGTTCTCCCAGCTGATGAATTCAACACGTCGAGTAAACAAATTTTCCTAATCTTTCTGTTCAAGCGCCATCTAC”, 0.477.
To “GATGATTGTTCTCCCAGCTGATGAATTCCTAATGTCGAGTAAACAAATTTTCCTAATCTTTCTGTTCAAGCGCCATCTAC” belongs 0.337; to “GATGATTGTTCTCCCAGCTGATGAATTCGGGATGTCGAGTAAACAAATTTTCCTAATCTTTCTGTTCAAGCGCCATCTAC”, 0.394; to “GATGATTGTTCTCCCAGCTGATGAATTATACCAGTCGAGTAAACAAATTTTCCTAATCTTTCTGTTCAAGCGCCATCTAC”, 0.351.
As to “GATGATTGTTCTCCCAGCTGATGAATTATCAAGATCGAGTAAACAAATTTTCCTAATCTTTCTGTTCAAGCGCCATCTAC”, the binding signal (RPM ratio (pull-down/input)) came to 0.227.
To “GATGATTGTTCTCCCAGCTGATGAATTCGACGTGTCGAGTAAACAAATTTTCCTAATCTTTCTGTTCAAGCGCCATCTAC” belongs 0.789; to “GATGATTGTTCTCCCAGCTGATGAATTGCTCAAATCGAGTAAACAAATTTTCCTAATCTTTCTGTTCAAGCGCCATCTAC”, 0.408.
As for “GATGATTGTTCTCCCAGCTGATGAATTCCACTTCTCGAGTAAACAAATTTTCCTAATCTTTCTGTTCAAGCGCCATCTAC”, the figure is 0.439.
As for “GATGATTGTTCTCCCAGCTGATGAATTTATTCCATCGAGTAAACAAATTTTCCTAATCTTTCTGTTCAAGCGCCATCTAC”, the figure is 0.53.
For the sequence “GATGATTGTTCTCCCAGCTGATGAATTCTTAAGCTCGAGTAAACAAATTTTCCTAATCTTTCTGTTCAAGCGCCATCTAC”, the binding signal (RPM ratio (pull-down/input)) was determined as 0.218.
As for “GATGATTGTTCTCCCAGCTGATGAATTGATAATATCGAGTAAACAAATTTTCCTAATCTTTCTGTTCAAGCGCCATCTAC”, the figure is 0.753; as for “GATGATTGTTCTCCCAGCTGATGAATTTACCCTATCGAGTAAACAAATTTTCCTAATCTTTCTGTTCAAGCGCCATCTAC”, 0.52.
As for “GATGATTGTTCTCCCAGCTGATGAATTATTTGAATCGAGTAAACAAATTTTCCTAATCTTTCTGTTCAAGCGCCATCTAC”, the figure is 0.377.
As to “GATGATTGTTCTCCCAGCTGATGAATTACGGTGATCGAGTAAACAAATTTTCCTAATCTTTCTGTTCAAGCGCCATCTAC”, the binding signal (RPM ratio (pull-down/input)) worked out at 0.601.
Consider “GATGATTGTTCTCCCAGCTGATGAATTTTTGAGCTCGAGTAAACAAATTTTCCTAATCTTTCTGTTCAAGCGCCATCTAC”, for which the binding signal (RPM ratio (pull-down/input)) is 0.209.
As for “GATGATTGTTCTCCCAGCTGATGAATTGCCTAAGTCGAGTAAACAAATTTTCCTAATCTTTCTGTTCAAGCGCCATCTAC”, the figure is 0.387.
As for “GATGATTGTTCTCCCAGCTGATGAATTGAGGCCATCGAGTAAACAAATTTTCCTAATCTTTCTGTTCAAGCGCCATCTAC”, the figure is 1.6; as for “GATGATTGTTCTCCCAGCTGATGAATTGACTGATTCGAGTAAACAAATTTTCCTAATCTTTCTGTTCAAGCGCCATCTAC”, 0.374.
With “GATGATTGTTCTCCCAGCTGATGAATTGCGTTCTTCGAGTAAACAAATTTTCCTAATCTTTCTGTTCAAGCGCCATCTAC”, the binding signal (RPM ratio (pull-down/input)) stood at 1.3.
As for “GATGATTGTTCTCCCAGCTGATGAATTCAATGCGTCGAGTAAACAAATTTTCCTAATCTTTCTGTTCAAGCGCCATCTAC”, the figure is 1.1; as for “GATGATTGTTCTCCCAGCTGATGAATTCTGCACATCGAGTAAACAAATTTTCCTAATCTTTCTGTTCAAGCGCCATCTAC”, 1.2.
To “GATGATTGTTCTCCCAGCTGATGAATTAAGCCTTTCGAGTAAACAAATTTTCCTAATCTTTCTGTTCAAGCGCCATCTAC” belongs 4.34.
In the case of “GATGATTGTTCTCCCAGCTGATGAATTGGGTCTATCGAGTAAACAAATTTTCCTAATCTTTCTGTTCAAGCGCCATCTAC”, the binding signal (RPM ratio (pull-down/input)) was 0.456.
For “GATGATTGTTCTCCCAGCTGATGAATTAGAACCTTCGAGTAAACAAATTTTCCTAATCTTTCTGTTCAAGCGCCATCTAC”, the binding signal (RPM ratio (pull-down/input)) was 0.247.
To “GATGATTGTTCTCCCAGCTGATGAATTGTGGGACTCGAGTAAACAAATTTTCCTAATCTTTCTGTTCAAGCGCCATCTAC” belongs 0.586; to “GATGATTGTTCTCCCAGCTGATGAATTTACAATGTCGAGTAAACAAATTTTCCTAATCTTTCTGTTCAAGCGCCATCTAC”, 0.563.
As for “GATGATTGTTCTCCCAGCTGATGAATTCTAACGGTCGAGTAAACAAATTTTCCTAATCTTTCTGTTCAAGCGCCATCTAC”, the figure is 0.288.
For “GATGATTGTTCTCCCAGCTGATGAATTTATACGCTCGAGTAAACAAATTTTCCTAATCTTTCTGTTCAAGCGCCATCTAC”, the binding signal (RPM ratio (pull-down/input)) worked out at 0.739.
“GATGATTGTTCTCCCAGCTGATGAATTCCGGAGTTCGAGTAAACAAATTTTCCTAATCTTTCTGTTCAAGCGCCATCTAC”: the binding signal (RPM ratio (pull-down/input)) worked out at 0.329.
For “GATGATTGTTCTCCCAGCTGATGAATTGTAAAAATCGAGTAAACAAATTTTCCTAATCTTTCTGTTCAAGCGCCATCTAC”, the binding signal (RPM ratio (pull-down/input)) amounted to 0.222.
For the sequence “GATGATTGTTCTCCCAGCTGATGAATTGGTATCTTCGAGTAAACAAATTTTCCTAATCTTTCTGTTCAAGCGCCATCTAC”, the binding signal (RPM ratio (pull-down/input)) is 1.23.
As to “GATGATTGTTCTCCCAGCTGATGAATTTTCCATTTCGAGTAAACAAATTTTCCTAATCTTTCTGTTCAAGCGCCATCTAC”, the binding signal (RPM ratio (pull-down/input)) is 0.295.
To “GATGATTGTTCTCCCAGCTGATGAATTGCCGTCCTCGAGTAAACAAATTTTCCTAATCTTTCTGTTCAAGCGCCATCTAC” belongs 0.621; to “GATGATTGTTCTCCCAGCTGATGAATTCGTCAGCTCGAGTAAACAAATTTTCCTAATCTTTCTGTTCAAGCGCCATCTAC”, 0.507.
